# PubChem BioAssay AID651820 (National Center for Advancing Translational Sciences (NCATS), 2012)
# About 12,000 (3.5%) of roughly 340,000 compounds were called active. This list was built around the results that the source calls inconclusive (neither active nor inactive); the mix of calls is not that of the screen. Calls follow the shape of the dose curve; as a rule, active = well fitted inhibition curve with a large enough effect; inconclusive = small, poorly fitted or top-dose-only effect, or another doubt; inactive = no such curve, though single readings can be large or run the other way. No potency is given beside an inconclusive call; the fits are too rough.
# Test: qHTS Assay for Inhibitors of Hepatitis C Virus (HCV)
# Settings: Huh7.5.1 HCVcc-Cre (HCVcc is cell-culture hepatitis C virus) infection, luciferase reporter, 44 h; series mostly up to 41.8 µM
# How it was run: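 Infectious HCVcc-Cre (~0.5 moi) was added to cells just after compound, with cells seeded 4 h earlier at 1,000 per well. Luciferase activity after 44 h culture reported infection; substrate was incubated 15 min at room temperature before reading.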
# Potency is read from the fitted curve at half-maximal effect; tags tell the direction and shape of the fitted curve.
row,SMILES,Potency
1,CC1(C)Cc2c(cnn2-c2ccccc2)C(NC(=O)c2ccc[n+]([O-])c2)C1 (stereo unspecified),inactive
2,COc1ccccc1-c1nnc2sc(-c3ccc(N(C)C)cc3)nn12,"inconclusive [inhibitor, single point]"
3,CC(C)C(=O)N1CCN(c2ccccc2NC(=O)COc2ccccc2)CC1,"inconclusive [inhibitor, single point]"
4,CC(Oc1ccc(F)cc1)c1nnc(SCC(=O)N(c2ccccc2)C2CCS(=O)(=O)C2)o1 (stereo unspecified),"inconclusive [inhibitor, single point]"
5,CCOC(=O)c1c(-c2ccc(C)cc2)csc1NC(=S)NC(=O)c1ccccc1,"inconclusive [inhibitor, single point]"
6,CC(C)(C)OC(=O)NCCc1nnc(SCc2ccccc2Cl)o1,inactive
7,COc1cc(NC(=O)CN2c3ccccc3CC2C)cc(OC)c1OC (stereo unspecified),"inconclusive [inhibitor, partial curve]"
8,CC(=O)c1ccc(OCCCC(=O)N2CCN(S(=O)(=O)c3ccc(C(C)C)cc3)CC2)cc1,active: 10 µM
9,O=C(NC1CCCCC1)C(c1cccs1)N(CCCN1CCOCC1)C(=O)c1ccc(-c2ccccc2)[nH]1 (stereo unspecified),"inconclusive [inhibitor, single point]"
10,COc1ccc(NC(=O)C(OC)c2ccccc2)cc1Cl (stereo unspecified),inactive
11,Cc1cccc(Nc2nnc(SCC(=O)N(C)C3CCS(=O)(=O)C3)s2)c1C (stereo unspecified),inactive
12,CCOc1ccc(-n2cnc3sc4c(c3c2=O)CCCC4)cc1,"inconclusive [inhibitor, single point]"
13,CCOc1ccc(CCn2c(-c3ccco3)nc3ccccc3c2=O)cc1OCC,active: 7.08 µM
14,Cc1sc2ncnc(SCC(=O)Nc3nc(-c4ccc(F)c(F)c4)cs3)c2c1C,"inconclusive [inhibitor, partial curve]"
15,CN(Cc1ccccc1)Cc1nc2c(c(=O)n(C)c(=O)n2C)n1Cc1ccc(Cl)cc1,active: 14.1 µM
16,CCCNC(=O)C(=O)Nc1ccc2c(c1)N(S(=O)(=O)c1cccs1)CCC2,"inconclusive [inhibitor, full curve]"
17,Cc1cc(=O)nc2c3ccccc3n(CC(=O)NCCCN3CCCC3=O)n12,inactive
18,COC(COC(N)=O)C1=C(N2CC2)C(=O)C(C)=C(N2CC2)C1=O (stereo unspecified),active: 0.562 µM
19,Cc1csc(SCC(=O)Nc2nc3ccccc3s2)n1,"inconclusive [inhibitor, partial curve]"
20,CCn1c(=O)[nH]c2cc(C(=O)N3CCN(c4ccccc4)CC3)ccc2c1=O,inactive
21,Cc1cccc(NC(=S)/N=C(\N)Nc2nc(C)c3cc(C)ccc3n2)c1,"inconclusive [inhibitor, partial curve]"
22,CCCCCCOc1ccc(N2C(=O)CC(N3CCN(CCN=CC4=C(O)CC(C)(C)CC4=O)CC3)C2=O)cc1 (stereo unspecified),inactive
23,CCc1cc(=O)oc2cc(C)cc(OC(C)C(=O)NC3CCN(Cc4ccccc4)CC3)c12 (stereo unspecified),active: 12.6 µM
24,Cc1cc(N2CCN(C)CC2)n2nc(-c3ccc(Cl)cc3)nc2n1,inactive
25,O=C1NC(=O)N(Cc2ccccc2Cl)C(=O)/C1=C/c1cccs1,inactive
26,COc1cccc(N2CCN(CC(=O)Nc3ccccc3C(=O)NCc3ccccc3)CC2)c1,"inconclusive [inhibitor, single point]"

row,SMILES,Potency
1,CSc1nc2cc(C)nn2c(-c2ccc(C(C)(C)C)cc2)c1C#N,"inconclusive [inhibitor, single point]"
2,COc1ccc(C(NC(=O)C(C)C)c2c(O)ccc3ccccc23)cc1 (stereo unspecified),inactive
3,N#Cc1cc(C(=O)c2ccccc2O)cn(-c2ccc(Cl)cc2)c1=O,"inconclusive [inhibitor, single point]"
4,CC(C)Oc1ncnc2c1[nH]c1ccccc12,"inconclusive [inhibitor, partial curve]"
5,O=C(NNc1cccc(Cl)n1)C(F)(F)F,inactive
6,COc1ccc(OCC2NCCc3cc(OC)c(OC)cc32)cc1 (stereo unspecified),"inconclusive [inhibitor, single point]"
7,CCCCNC(=O)C1CCC(CNS(=O)(=O)c2ccc(C)cc2)CC1 (stereo unspecified),inactive
8,CCn1c(=O)c([N+](=O)[O-])c(NCc2ccco2)c2ccccc21,inactive
9,Cc1cccc(NC(=S)NCC(c2cccnc2)N2CCOCC2)c1C (stereo unspecified),inactive
10,COc1ccc(C(CCN2CCOCC2)c2c(OC)cc(OC)c3ccc(=O)oc23)cc1 (stereo unspecified),active: 2.82 µM
11,O=C(CSc1ccc(-c2ccc(Br)cc2)nn1)NCC1CCCO1 (stereo unspecified),"inconclusive [inhibitor, single point]"
12,COc1ccc(CNC(=O)C2CCCN(S(=O)(=O)c3ccc(F)cc3)C2)cc1 (stereo unspecified),"inconclusive [inhibitor, single point]"
13,N#CCc1ccc(NC(=O)Nc2cccc(Cl)c2)cc1,inactive
14,O=C(CSC1=NCCS1)Nc1ccnc2ccccc12,"inconclusive [inhibitor, partial curve]"
15,CN(C)c1nc(N2CCN(c3ccccc3)CC2)c(C#N)c(=O)o1,inactive
16,COc1ccc(CCNC(=O)C2CCCN(Cc3nc(-c4ccccc4C)oc3C)C2)cc1OC (stereo unspecified),"inconclusive [inhibitor, partial curve, poor fit]"
17,Cc1ccc[n+](/C(C(=S)NCc2ccco2)=C(/[O-])c2ccccc2Cl)c1,inactive
18,O=C(NCCN1CCN(c2ccccc2)CC1)c1cccc(Br)c1,"inconclusive [inhibitor, single point]"
19,COc1ccc(NC(=S)NC(NC(=O)c2cccc(C)c2)C(Cl)(Cl)Cl)c([N+](=O)[O-])c1 (stereo unspecified),"inconclusive [inhibitor, single point]"
20,COc1ccc(N2C(=O)CCC(C(=O)Nc3ccccn3)C2c2ccc(OC)c(OC)c2)cc1 (stereo unspecified),"inconclusive [inhibitor, single point]"
21,O=C(Nc1cc(Cl)ccc1-n1cncn1)c1cccs1,"inconclusive [inhibitor, partial curve]"
22,CCc1ccc2c(c1)cc(CN(C(=S)Nc1cccc(C)c1)C1CC1)c1nnnn12,inactive
23,CSCCC(NS(=O)(=O)c1ccc(Br)cc1)C(=O)OCC(=O)NC1CC1 (stereo unspecified),inactive
24,CCOc1cccc(C(=O)Nc2cccc(-c3nnc(-c4ccc(C)cc4)o3)c2)c1,"inconclusive [inhibitor, single point]"
25,Cc1ccc(CCNC(=O)C2CCCN(S(=O)(=O)N3CC(C)CC(C)C3)C2)cc1 (stereo unspecified),inactive
26,CCOc1ccc(C(=O)Nc2nc(C)cc(C)n2)cc1[N+](=O)[O-],inactive

row,SMILES,Potency
1,CC(=O)Nc1ccc2c(c1)Cc1c-2cc(Cl)c(NC(C)=O)c1Cl,"inconclusive [inhibitor, single point]"
2,Cc1ccc2cc(C3C(C#N)=C(N)Oc4c3ccc3cccnc43)c(=O)[nH]c2c1 (stereo unspecified),active: 11.2 µM
3,CC(C)(C)c1ccc(/C=N/Nc2cccc(C(=O)O)c2)cc1,inactive
4,O=C(Nc1cc(SCCO)cc([N+](=O)[O-])c1)c1ccco1,inactive
5,Cc1ccc(-c2nnn(CC(=O)N(Cc3ccccc3)C(C(=O)NC(C)(C)C)c3ccncc3)n2)o1 (stereo unspecified),"inconclusive [inhibitor, partial curve]"
6,Cc1cc(C(=O)NC2CCCc3c2cnn3-c2ccc(C)c(C)c2)n(C)n1 (stereo unspecified),active: 8.91 µM
7,COc1cc(C2c3cc4c(cc3CC3COC(=O)N32)OCO4)cc(OC)c1OC (stereo unspecified),inactive
8,CN(C)S(=O)(=O)c1ccc(NC(=O)COC(=O)c2n[nH]c3ccccc23)cc1,"inconclusive [inhibitor, single point]"
9,COc1cc2cc(C)c(SCC(=O)N3CCOCC3)nc2cc1OC,"inconclusive [inhibitor, single point]"
10,CCN(C(=O)COC(=O)c1cc([N+](=O)[O-])ccc1N1CCOCC1)C1CCCCC1,inactive
11,O=C(CCN1C(=O)/C(=C/c2ccc3c(c2)OCO3)SC1=S)Nc1ccccc1,inactive
12,O=C(COc1ccccc1)Nc1ccc(NC(=O)c2ccco2)cc1,inactive
13,COc1ccc(C(=O)CN2C(=O)c3ccccc3S2(=O)=O)cc1,inactive
14,Cc1nc(SCc2ccc(Br)cc2)[nH]c(=O)c1C,"inconclusive [inhibitor, partial curve]"
15,O=c1[nH]c(CCl)nc2cc(-c3ccc(Cl)cc3)sc12,active: 6.31 µM
16,Cc1ccc(S(=O)(=O)N(C)C)cc1-n1c(SCC(=O)Nc2ccc(F)c(F)c2F)nc2ccccc2c1=O,"inconclusive [inhibitor, full curve]"
17,O=C1/C(=C\c2ccco2)SC(=S)N1c1ccccc1,inactive
18,CCOc1ccc(NS(=O)(=O)c2ccc3c(c2)N(C(C)=O)CCS3)cc1,"inconclusive [inhibitor, single point]"
19,COc1ccc(NC(=O)Nc2nccs2)cc1,inactive
20,CCOC(=O)C(Cc1ccccc1)NC(=O)CCc1c(C)nc2ncnn2c1C (stereo unspecified),inactive
21,CC(OC(=O)C1=Cc2ccccc2OC1)C(=O)NCc1ccco1 (stereo unspecified),"inconclusive [inhibitor, single point]"
22,Cc1ccc(NC(=O)COc2ccccc2CNC(C)(C)CC(C)(C)C)cc1,"inconclusive [inhibitor, single point]"
23,COc1ccc(C2=NNC(c3cccs3)=Nc3ccc(OC)cc32)cc1,inactive
24,N#Cc1sc(C(N)=O)c(-c2ccccc2)c1-c1ccccc1,"inconclusive [inhibitor, single point]"
